Reference: PubChem BioAssay AID938 (National Center for Advancing Translational Sciences (NCATS), 2007)
About 1,800 (2.5%) of roughly 73,000 compounds were called active. Inconclusive results, whose numbers are uncertain, are shown with a selection of clear calls. The call rests on the fitted dose curve; in most records, active means well fitted activation curve with a large enough effect; inconclusive means small, poorly fitted or top-dose-only effect; inactive means no such curve, though single readings can be large or run the other way. No potency is given beside an inconclusive call; the fits are too rough.

assay: qHTS Assay for Agonists of the Thyroid Stimulating Hormone Receptor: Activators of Intracellular cAMP Concentrations in Parental HEK 293; conditions: parental HEK293 CNG cAMP sensor, membrane potential fluorescence; activation: at 57.1 µM (top of the series) unless noted; further: nearly all actives have a fitted effect of over 55% in size; on activation: % of control where 0% means no effect
Procedure, shortened: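 Parental HEK 293 cells stably expressing a modified CNG channel (no TSHR) report cAMP rise as membrane depolarization. Membrane potential dye with 100 uM RO 20-1724 was loaded for 60 min at room temperature, then compound added for 30 min; fluorescence read at 590 nm.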
Potency means the concentration at half of the fitted maximal effect; tags describe the fitted curve by direction and shape.

Structure (SMILES) | Potency | activation
COCCNC(=O)CC(NS(=O)(=O)c1ccc(C)cc1)c1ccco1 (configuration not stated) | inconclusive [activator, partial curve] | 
O=C1c2ccccc2C(=O)c2c(NC3CCCCC3)ccc(Nc3ccc(S(=O)(=O)O)cc3)c21 |  | inactive: -10.7% [at 11.4 µM]
COc1ccc(C(=O)N2CCC3(CC2)CN(c2ccc(-c4ccccc4)cc2)C3)cc1 | inconclusive [activator, single point] | 
CCCCC(=O)Nc1nn(C)c2nc3c(C)cccc3cc12 |  | inactive: 8.26%
COCCCN1C(=O)c2ccccc2C1C(=O)NC1CCCCCC1 (configuration not stated) | inconclusive [activator, partial curve] | 
CC1=C(C(=O)NC2CCCC(C)C2C)C2(CCCCC2)OC1=O (configuration not stated) |  | inactive: -1.38%
COc1ccc(S(=O)(=O)n2cnc3cc(C)c(C)cc32)cc1C | inconclusive [activator, single point] | 
COc1cccc(NC(=O)CSc2nnc(-c3cc(C)n(-c4ccccc4)c3C)o2)c1 | inconclusive [activator, single point] | 
COc1ccc(N(CC(=O)NC2CCCCCC2)S(=O)(=O)c2c(C)nn(C)c2C)cc1 | inconclusive [activator, single point] | 
CCCCC(c1nnnn1Cc1ccco1)N1CCN(c2nc3ccccc3s2)CC1 (configuration not stated) | inconclusive [activator, full curve, poor fit] | 
CN(C)c1ccnc(SCc2ccccc2Cl)c1C#N | inconclusive [activator, partial curve] | 
CCC(C)C(NC(=O)c1ccccc1NC(=O)c1ccco1)C(=O)NC1CCCCC1 (configuration not stated) | inconclusive [activator, partial curve] | 
Cc1cccc(C(=O)O)c1C[C@H]1NCC[C@H]2c3ccccc3N[C@@H]12 |  | inactive: 0.45% [at 11.4 µM]
Cc1cc(N2CCN(c3cccc(C(F)(F)F)c3)CC2)n2ncnc2n1 | inconclusive [activator, single point] | 
O=C(CN1CCOCC1)Nc1ccc(S(=O)(=O)N2CCCCCC2)cc1 |  | inactive: -16.4%
CCSc1ccccc1C(=O)Nc1cccnc1 |  | inactive: 7.91%
O=C(COc1cccc2cccnc12)Nc1nccs1 |  | inactive: -4.8%
CC(C)Sc1nc2c(c(=O)[nH]c(=O)n2C)n1Cc1ccc(Cl)cc1 | inconclusive [activator, partial curve] | 
O=C(C1CCCN1S(=O)(=O)c1cccc2cccnc12)N1CCc2ccccc21 (configuration not stated) |  | inactive: -0.508%
COc1ccc(NC(=O)C(c2ccc(OC)cc2)N(C)C(=O)c2cnccn2)cc1 (configuration not stated) | inconclusive [activator, partial curve, poor fit] | 
Oc1ccc([C@@H]2CNCCc3c2cc(O)c(O)c3Cl)cc1 | inconclusive [activator, single point] | 

Structure (SMILES) | Potency | activation
N#Cc1nc(COc2ccccc2)oc1N1CCC(Cc2ccccc2)CC1 | inconclusive [activator, full curve] | 
CCOC(=O)c1ccc(Oc2nc(NC)nc(SC)n2)cc1 |  | inactive: 2.21%
O=C(Oc1cc(=O)oc2ccccc12)c1ccco1 | inconclusive [activator, single point] | 
O=C(NCCC1=CCCCC1)C1CCN(S(=O)(=O)c2cccc3cccnc23)CC1 | inconclusive [activator, single point] | 
O=C(c1ccco1)N1CCN(c2c(-c3ccccc3)c3cc(Cl)ccc3[nH]c2=O)CC1 | inconclusive [activator, single point] | 
Cc1occc1-c1nnc(SCC(=O)Nc2ccccc2N2CCCCC2)n1C | active: 31.6 µM | 
O=C(N[C@@H](CO)[C@@H](O)c1ccc([N+](=O)[O-])cc1)C(Cl)Cl | inconclusive [activator, single point] | 
Nc1c(S(=O)(=O)c2cccs2)c2nc3ccccc3nc2n1CC1CCCO1 (configuration not stated) | inconclusive [activator, single point] | 
CN(C)Cc1ccccc1-c1nccc(N(C)Cc2ccco2)n1 | active: 31.6 µM | 
COc1ccc(CCN(C(=O)c2ccc(F)cc2)C2=CC3CCC(C2)N3C)cc1OC (configuration not stated) | inconclusive [activator, single point] | 
Cn1c(SCCSc2nnc(-c3ccccc3)n2C)nnc1-c1ccccc1 |  | inactive: -1.28%
CCOC(=O)C1=C(N)n2c(s/c(=C\c3cccnc3)c2=O)=C(C(=O)OCC)C1c1cccnc1 (configuration not stated) | inconclusive [activator, single point] | 
Cc1ccc(-c2noc(CN(C(=O)c3cccs3)C(C)C)n2)cc1 | inconclusive [activator, single point] | 
COc1ccccc1-c1ccc2ncnc(N3CCN(C)CC3)c2c1 | inconclusive [activator, partial curve] | 
Cc1cc(-c2nnco2)c(C)n1-c1ccc(F)cc1 | active: 15.8 µM | 
COc1cccc(-c2nccc(NCc3ccccc3)n2)c1 | inconclusive [activator, partial curve, poor fit] | 
Cc1ccc(C)c(OCCCC(C)(C)C(=O)O)c1 | inconclusive [activator, partial curve] | 
COC(=O)[C@@]1(Cc2ccc(OC)cc2)[C@H]2c3cc(C(=O)N(C)C)n(CCN4CNCC4=O)c3C[C@H]2CN1C(=O)c1ccccc1 | inconclusive [activator, single point] | 
COC(=O)C/C=C\[C@@H](C)[C@@H](/C=N\O[C@@H](C)CN1CCCCc2nc(C)c(C)cc21)NS(=O)(=O)c1ccc(C)cc1 | inconclusive [activator, single point] | 
COC(=O)[C@@]1(Cc2ccc(OC)cc2)[C@H]2c3cc(C(=O)N4CCCC4)n(CCc4ccc(OC)c(Br)c4)c3C[C@H]2CN1C(=O)c1ccccc1 | active: 5.01 µM | 
Cc1cccc(NC(=O)C2CCCN(c3nc(C)cc(C)n3)C2)c1 (configuration not stated) | inconclusive [activator, partial curve] | 
